These results are taken from ChEMBL document CHEMBL3124763.

One assay deals with Vero. Description: Inhibition of furin in African green monkey Vero cells assessed as protection against Stx-induced toxicity at 2 to 20 uM incubated for 4 hrs prior to Stx challenge measured after 24 hrs by LDH assay. The following applies: Chlorocebus sabaeus.
Assay [1] concerns the target Furin (Homo sapiens) (UniProt P09958). Description: Inhibition of furin (unknown origin) assessed as HA5-mediated membrane fusion at 100 uM after 36 hrs by cell-based luciferase reporter gene assay.
Chain of UniProt P09958 (P09958 whole entry, the tested form may be a part): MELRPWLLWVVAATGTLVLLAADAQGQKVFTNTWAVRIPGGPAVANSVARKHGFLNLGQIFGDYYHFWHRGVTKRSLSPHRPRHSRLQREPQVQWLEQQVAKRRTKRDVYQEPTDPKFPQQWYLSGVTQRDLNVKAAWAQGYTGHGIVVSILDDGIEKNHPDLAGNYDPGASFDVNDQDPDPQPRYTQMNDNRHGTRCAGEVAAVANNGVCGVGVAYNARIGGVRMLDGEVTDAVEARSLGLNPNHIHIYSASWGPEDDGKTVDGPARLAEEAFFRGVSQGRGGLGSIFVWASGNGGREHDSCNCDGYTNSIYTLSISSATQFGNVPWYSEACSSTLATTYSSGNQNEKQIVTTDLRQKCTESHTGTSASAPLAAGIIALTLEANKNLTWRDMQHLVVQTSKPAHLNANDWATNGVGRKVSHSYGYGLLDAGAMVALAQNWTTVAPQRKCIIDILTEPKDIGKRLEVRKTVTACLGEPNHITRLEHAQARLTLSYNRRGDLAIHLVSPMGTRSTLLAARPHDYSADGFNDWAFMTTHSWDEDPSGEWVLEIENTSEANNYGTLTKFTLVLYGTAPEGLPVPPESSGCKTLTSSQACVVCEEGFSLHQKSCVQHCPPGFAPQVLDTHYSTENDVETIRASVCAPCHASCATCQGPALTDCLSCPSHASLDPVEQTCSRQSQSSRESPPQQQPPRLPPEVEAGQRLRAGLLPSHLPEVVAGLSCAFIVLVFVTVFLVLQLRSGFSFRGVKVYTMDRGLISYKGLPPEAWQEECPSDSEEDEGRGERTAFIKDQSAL
Assay [2] shares this target. As to the kind of experiment: Inhibition of furin (unknown origin) assessed as HA5-mediated membrane fusion at 12.5 to 50 uM after 36 hrs by cell-based luciferase reporter gene assay.

The source made the active and inactive calls. The rule behind the calls is not given here. Where a SMILES comes first, the peptide text is derived from it. The star is where a group is joined. Decanoyl = CCCCCCCCCC(=O)*; CH2Cl = ClC*

As for `CCCCCCCCCC(=O)N[C@@H](CCCNC(=N)N)C(=O)N[C@H](C(=O)N[C@@H](CCCCN)C(=O)N[C@@H](CCCNC(=N)N)C(=O)CCl)C(C)C` (Decanoyl-RVKR-CH2Cl), the inhibition result in the assay with Vero and at Furin (Homo sapiens) [2] was “Active” each time. At Furin (Homo sapiens) [1], the inhibition came to 50%.
